In PMC10668032:
This is one part of the list. At the low end of the ranking the order means little.

What follows are sequences tested against SIX1 homeodomain (reference allele) (UniProt Q15475) (assay: universal protein binding microarray). Conditions: Universal all-10-mer PBM (8x60K, AMADID 030236), 300 nM GST-tagged protein, Alexa Fluor 488 anti-GST; buffer, salt, pH and temperature not stated; high values mean tight binding; most listed sequences are background and not binding sites; double strand, one strand shown.

Sequence | binding signal [E-score]
CTATTACA | 0.0832
CTTGTGAC | -0.129
ACTGAGTA | 0.069
GTCGGACA | -0.119
AAAACTCA | -0.0736
GGCTTAAC | -0.0876
CACATAAG | -0.0269
AAACTGAA | -0.182
AGAACCAC | -0.166
CATCGCGA | 0.015
AGGTTCAA | 0.0503
CGCTGATA | 0.325
GCAATCCA | 0.0921
ATCTCGCA | 0.137
CGATGCAC | 0.0365
CTTAGCTC | -0.093
AATATCTA | 0.259
CAGTCATG | -0.152
CATAGGGA | 0.0396
AGTATATA | 0.306
GACCTACC | -0.13
CTATGGCA | -0.11
AGATAGGG | 0.263
CGTGACGA | -0.025
AGTCTCGA | -0.051

Sequence | binding signal [E-score]
ATTAAGAA | -0.0818
CGATTCTA | -0.0926
AGGTTCTG | -0.101
CTCGCCAC | -0.0146
ACCAGAAA | -0.0438
ATGAGGCG | -0.0314
GAAATGGC | -0.274
GATTGGCA | -0.116
GCGATAGC | 0.165
AGAAGGCA | -0.0738
AGGAGGAC | -0.0962
AGGTCACA | -0.152
AAAAGGCG | -0.276
CCTCTGAG | 0.0438
CTCGACAA | -0.134
GTCAAATA | -0.0524
CACCAGGC | 0.175
CTTGGGAA | -0.0699
CCCTCTAG | 0.0131
GCGGATCC | 0.348
AGTTCAGC | -0.0858
TAAACCGA | 0.0679
CACCCGTA | 0.229
GCGCCTGA | -0.105
CGATATGC | 0.428

Sequence | binding signal [E-score]
GCGGAAAA | -0.163
CAATTCTG | -0.146
ACTCTTTA | -0.222
ACGCGTTC | -0.169
GCATTGTA | 0.0733
AGCGCAAT | -0.0885
CCGCCTTA | 0.103
CACAAAGG | -0.0533
AGCCCTCA | -0.0969
TGCTCGAA | -0.268
AACGCCTC | -0.191
ACAAAGGT | -0.138
ACGGCGAT | 0.29
ATCTTTCG | 0.087
ACTCTCAG | -0.268
GGTACGAA | 0.0404
ACTTGTTC | -0.192
CGCGGCAC | -0.185
CCGTGCTC | -0.0416
CGTTCTTA | -0.103
CAGCATGA | -0.0566
AACCTTTG | -0.153
CATGTTGG | -0.0797
GTCAAGCA | -0.0588
CCTTCTCC | 0.0483

Sequence | binding signal [E-score]
CACAGTGC | 0.038
CTTCCGGC | -0.134
GCCCTCAC | -0.152
GCCGATTA | 0.105
CCCGCCTA | 0.163
CGATGGCG | -0.21
ATTAAGCG | 0.0171
CGAAGGAG | 0.0417
AAGTAACG | -0.264
ACTCGGAG | 0.0012
TCATATAA | 0.0363
ATATCTAA | 0.316
CGAATTCG | -0.348
CCGGGCCG | 0.012
CTGCACTA | 0.0182
TCTCTCAA | 0.00178
ATCCCTGG | 0.312
AGGTTCGG | 0.0563
AGCGAATC | -0.127
TGCGGCAA | -0.201
ACGCCCTA | -0.123
GACGTCAA | -0.211
TGTGGTAA | -0.0211
ACTAACTG | -0.166
ACGCGAAC | -0.0486

Sequence | binding signal [E-score]
ACGGGGCG | 0.127
GACAAGTA | 0.0519
ACGGCAGT | -0.0908
GCAAATCA | -0.177
ACCACCAG | 0.11
AGGCAAAA | -0.204
CCAGGCTC | 0.00819
CCACTGTC | -0.0355
ACCCTGCT | 0.229
CAGGCGAG | 0.0177
CAATAATG | -0.0944
GATCGGGC | 0.296
ATTGTGAG | 0.0432
CGCACGGA | 0.0762
ATTTTCAA | -0.234
CAGCGACG | -0.152
GACTAATC | 0.0662
CGGCCCTA | -0.081
CTGTATAA | 0.102
AACGTCCC | -0.321
CAAAATCC | 0.0129
AGGACAAT | -0.0417
ATCGGTCG | 0.225
CGCTGCCA | -0.0924
ATCGCGCA | 0.0279

Sequence | binding signal [E-score]
CCATGCGC | -0.0241
ATCCCTAA | 0.152
ACACGTGC | -0.0118
TAGAGCGA | -0.0893
GGGGCATA | 0.0124
CTGAGATC | 0.253
CTCTTAAC | -0.23
GCTGCTCA | -0.188
CAGGTAGG | -0.0379
AGCATAAT | -0.00289
ATTGCGTA | 0.0128
GAAAGTTA | -0.237
TGCCAAAA | -0.227
AGGCATGG | -0.135
GAACAGGC | -0.105
ATGGTATC | 0.469
GCAAGACC | -0.106
CTAAATAC | 0.1
GCTATGGA | -0.058
AACTCGAA | -0.348
GATAGCAA | 0.202
ACCGTCTC | 0.251
GTGTGAGA | 0.245
GGAGCTAA | -0.149
GGTGCCCA | -0.215

Sequence | binding signal [E-score]
ATGCCTCA | -0.111
CTACCTGA | 0.0294
GCTGACGA | -0.199
GGATCTGA | 0.288
GGGTTCCA | 0.0272
AAACAACC | -0.291
ATGCTGCC | -0.0369
GGTTCACA | -0.098
AATCAATT | -0.149
AGGTGTGC | 0.00258
GAGCGTGA | -0.143
CATCCTTC | 0.00573
ATACAGTA | 0.321
CAGAAAGC | -0.341
GGACGTGA | -0.214
TGAATACA | -0.0905
CGCAGGCA | 0.0956
AAATGATC | 0.321
CAAGCACA | -0.159
CGGTTCTA | 0.0141
AGGGCTTG | -0.178
AATGCCAT | -0.00585
TTCCCAAA | -0.117
ACCTTCTG | 0.0823
GCACCCCC | 0.1

Sequence | binding signal [E-score]
GGAACTAA | 0.127
CCCGCGTA | 0.128
GAACCGTC | -0.179
CATGGACC | -0.217
ATCATAGA | 0.229
AACGCGGC | -0.169
AATTAAGG | -0.293
AGTTCATC | -0.121
CGCCGACC | -0.153
AAGTAAGA | -0.154
ACCAAGTG | -0.103
TTACATAA | 0.00422
GGGGCTGA | -0.0139
CATGTGTA | 0.0184
CGCGGTTC | 0.00839
ACGTTCCC | -0.0998
CACACGTC | -0.108
CCCCTGCA | 0.0854
CTGTCTGA | -0.0334
AATGAAAA | 0.0521
CAGCGTTA | -0.178
GGTTGGAC | 0.0291
ATATTTTC | 0.199
CAGATATA | 0.263
AAAACTGC | -0.174

Sequence | binding signal [E-score]
GGAAAGAC | -0.158
GGGCGCCA | -0.23
AACCTTCG | -0.164
GATATTGC | 0.323
ACAGTGGA | 0.0419
CTTGTACA | -0.145
AAAAACAT | -0.277
TCGACTCA | -0.0242
AATGTCAA | -0.108
AGATTACA | 0.184
TAAATTGA | -0.0794
AGTATGAG | 0.0528
ACTTCTAG | -0.121
GAGTACCA | -0.0218
CGAAAAGA | 0.0332
CTAAATAA | -0.0107
ATAGCTGA | 0.146
GGGAGACA | 0.143
CAGCACTA | -0.0859
ATATCGAC | 0.379
CAGCAGGG | -0.0493
CGGCATTC | -0.00536
TAACCTGA | -0.0767
AAAGCGCT | -0.286
CTAATGAC | -0.16

Sequence | binding signal [E-score]
AAATTTTC | -0.126
CGACAATC | 0.0153
AAAGCGAT | 0.223
TGCGTCCA | -0.208
ACTATCCG | 0.35
ATCTGTGC | 0.153
CAGCCAAA | -0.0882
AGATTAAT | 0.2
TCAATCAA | 0.0286
ATCCATGC | 0.253
ACTTAACA | -0.212
ATAGCTAC | 0.163
ACTAACCT | -0.162
ATTATGAA | 0.141
ACCGAATG | 0.0121
GGGTCAAA | 0.0897
TGCGTAAA | -0.266
AATTGCAG | -0.28
AATCCTAG | -0.0499
AGTCACCG | -0.102
GGAGTGGA | -0.141
TCCGTTAA | -0.0746
GTTAATGA | -0.156
GCACCGGA | 0.0357
ACTTTCGA | -0.0418

Sequence | binding signal [E-score]
CACCGACC | -0.0487
CATATGAA | -0.0809
AGAGAAGA | -0.037
ACGCGACA | 0.0124
GACACGTC | -0.112
AGGCTAGC | -0.0839
ACGATCGA | 0.151
CCTAGGAC | -0.124
GCTGCGTA | -0.0881
ATGAGCAT | -0.0884
CGAGTGAA | -0.0677
ACATATTA | 0.161
ATTCTCTC | -0.0415
ACAAGAAC | -0.169
ACCCACGT | 0.0305
ATATTGAA | 0.196
TGAGTCAA | -0.143
CGGGCCCC | -0.214
CAACGTAA | -0.168
ATGTCTGA | 0.141
CTCCCAAG | -0.0821
AGCAGGCG | -0.0572
CGCAGGCG | -0.244
CGTAAAAA | -0.239
CTTAGCCC | -0.0707

Sequence | binding signal [E-score]
AGAGTACT | -0.126
CGGACCCC | -0.131
CCGGCAAG | -0.0426
CAGGCAAC | -0.179
GTAAGGCA | -0.0827
AAGTACGA | -0.0507
CACGGAGA | 0.0319
GCTAAACA | -0.252
CACTGACG | 0.0521
ATCCGCCA | 0.332
ACAGACCT | -0.17
CACCCGAG | 0.189
CACGTGCA | -0.0357
ATAGCCCG | 0.112
CGGGGGGA | 0.041
CGTTCAAG | -0.0607
CCACGAAA | -0.158
CACAAGTC | -0.195
GAACTCAC | -0.241
ATCTGTGA | 0.236
CCTGTGCG | -0.0297
AAGAGCGT | -0.127
AGGAAGCC | 0.0124
ATTCGGAA | -0.0242
CCGCCACC | -0.0987

Sequence | binding signal [E-score]
ATCCTTAA | 0.0756
AGCCTTCA | -0.221
GTAATGAA | -0.103
GGTCAGCA | -0.111
ACACGCAG | 0.0397
GTCGGCGA | -0.2
CGTATGAG | -0.00144
TAACACCA | 0.299
CCTTAGCA | -0.0861
AGGCCAAC | -0.0899
AATTGGAG | -0.0739
CCTAAATA | -0.0465
CGATTGCC | 0.0541
ACTACGGC | -0.107
AAGATTGA | -0.0213
AGTAAACT | -0.114
AATTGTGA | 0.185
GCGTAAAA | -0.264
GCATTACA | -0.153
AGGGTCTA | -0.0865
ACCTTCTC | 0.147
AGTAGTAG | 0.0732
CTCTTGGA | -0.0365
ACGGATAT | 0.428
CCCTGACC | -0.0314

Sequence | binding signal [E-score]
GGCCGAAA | -0.146
AATGCAGT | -0.123
TACTTCTA | 0.179
CTCATTAC | 0.0761
ACAAACGT | -0.24
ACACCGGC | 0.28
AATGGTCT | -0.139
ACGCTGTG | -0.163
TGCTCAAA | -0.202
TGGCACAA | -0.347
GTCCGGCA | -0.107
GCCACATA | 0.0342
TGGGACCA | -0.0713
ATCGGCCA | 0.0853
AGCATGCC | -0.241
AGTTATTC | -0.0532
GGGTTGGA | -0.0212
CAAGGCTC | -0.174
ACACTTAT | -0.0115
